Screen size: about 390,000 compounds; about 4,700 (1.2%) were called active. This list was built around the results that the source calls inconclusive (neither active nor inactive); the mix of calls is not that of the screen. The call rests on the fitted dose curve; in most records, active means well fitted inhibition curve with a large enough effect; inconclusive means small, poorly fitted or top-dose-only effect, or another doubt; inactive means no such curve, though single readings can be large or run the other way. Potencies beside an inconclusive call are fits to weak or partial responses and may not hold up.
Each compound was assayed against DNA polymerase eta (Homo sapiens) (UniProt Q9Y253) (assay: qHTS for Inhibitors of Polymerase Eta). Settings: recombinant Pol eta, fluorescent DNA replication assay; series mostly up to 114 µM.
UniProt Q9Y253, sequence (Q9Y253 whole entry, looked up): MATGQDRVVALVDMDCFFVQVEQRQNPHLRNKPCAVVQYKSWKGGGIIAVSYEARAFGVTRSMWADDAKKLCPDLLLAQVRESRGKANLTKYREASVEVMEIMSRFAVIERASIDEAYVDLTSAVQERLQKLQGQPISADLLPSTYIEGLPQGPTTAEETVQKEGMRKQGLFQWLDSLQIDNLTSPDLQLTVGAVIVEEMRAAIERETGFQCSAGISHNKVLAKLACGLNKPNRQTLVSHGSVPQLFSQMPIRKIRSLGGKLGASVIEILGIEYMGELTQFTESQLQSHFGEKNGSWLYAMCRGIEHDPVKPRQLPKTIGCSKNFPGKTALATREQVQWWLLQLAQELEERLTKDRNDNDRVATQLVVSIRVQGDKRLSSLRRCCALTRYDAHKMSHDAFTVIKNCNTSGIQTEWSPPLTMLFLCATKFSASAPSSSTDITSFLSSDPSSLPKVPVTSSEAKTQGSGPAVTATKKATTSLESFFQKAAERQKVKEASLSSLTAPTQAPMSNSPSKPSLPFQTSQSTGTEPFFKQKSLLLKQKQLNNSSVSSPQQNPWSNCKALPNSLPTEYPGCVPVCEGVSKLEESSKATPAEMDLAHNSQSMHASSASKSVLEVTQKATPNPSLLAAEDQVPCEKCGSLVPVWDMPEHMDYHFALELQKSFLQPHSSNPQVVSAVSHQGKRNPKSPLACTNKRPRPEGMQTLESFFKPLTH
Procedure, shortened: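 Pol eta at 10 nM preincubated with compounds 15 min at room temperature; reaction started with fluorescent substrate (50 nM final) and read kinetically at 0 and 10 min.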
For `O=C(CCN1C(=O)C2CC=C(Cl)CC2C1=O)NCc1ccco1` (configuration not stated), the Potency was inconclusive: 25.1 µM [inhibitor, single point].
In the case of `CN=c1scc(-c2ccco2)n1/N=C/c1ccc(O)c(O)c1`, the Potency was inconclusive: 17.8 µM [inhibitor, full curve].
With `CC1(C)Oc2c(ccc(O)c2CN2CCOCC2)C2=C1CCCC2` the Potency was inconclusive: 56.2 µM [inhibitor, partial curve, poor fit].
`C=CCn1c(C)cc(C(=O)COC(=O)c2ccc3c(c2)NC(=O)CS3)c1C` was tested, and the Potency was inconclusive: 17.8 µM [inhibitor, partial curve, poor fit].
In the case of `CC[C@H](C)NC(=O)c1ccc(Cn2c(=S)[nH]c3c([nH]c4ccc(OC)cc43)c2=O)cc1`, the Potency was active: 17.8 µM.
With `O=C(COC(=O)c1c2c(nc3ccccc13)/C(=C/c1cccc([N+](=O)[O-])c1)CCC2)NC1CCS(=O)(=O)C1` (configuration not stated) the Potency was “inactive”.
`O=C(O)c1occc1CSc1ccccc1` was tested, and the Potency was “inactive”.
`N=C1/C(=C\c2ccc(SCc3ccco3)o2)C(=O)N=C2SC=NN12` was tested, and the Potency was active: 14.1 µM.
`Cc1ccc(/C=c2\sc3nc(-c4ccccc4Br)nn3c2=O)o1` was tested, and the Potency was active: 10 µM.
`COc1ccc2c(CC(=O)NCc3ccc4c(c3)OCO4)coc2c1` was tested, and the Potency was active: 50.1 µM.
In the case of `CN1C(=O)C2(Oc3ccccc3C3CC(c4ccccc4)=NN32)c2ccccc21` (configuration not stated), the Potency was inconclusive: 31.6 µM [inhibitor, partial curve, poor fit].
`COc1cc(OC)c(OC)cc1/C=C/C(=O)c1ccc(NS(=O)(=O)c2ccc(C)cc2)cc1` was tested, and the Potency was inconclusive: 15.8 µM [inhibitor, partial curve, poor fit].
In the case of `CCn1cc(C(=O)NC(=S)Nc2ccccc2[N+](=O)[O-])cn1`, the Potency was “inactive”.
In the case of `Cc1cc(Cl)ccc1OC(C)C(=O)Nc1ccc(S(=O)(=O)Nc2cnc3ccccc3n2)cc1` (configuration not stated), the Potency was inconclusive: 17.8 µM [inhibitor, partial curve, poor fit].
`COc1cc(/C=N/N=C2/NC(=O)C(CC(=O)O)S2)ccc1OCc1ccc(Cl)cc1` (configuration not stated) was tested, and the Potency was inconclusive: 22.4 µM [inhibitor, full curve, poor fit].
`COc1ccccc1-n1c(N)c(C(=O)NCC2CCCO2)c2nc3ccccc3nc21` (configuration not stated) was tested, and the Potency was inconclusive: 79.4 µM [inhibitor, partial curve, poor fit].
In the case of `CCS(=O)(=O)c1ccc2oc(SCC(=O)c3ccco3)nc2c1`, the Potency was active: 15.8 µM.
For `O=C(NCCc1ccco1)c1cc(COc2cccc(C(F)(F)F)c2)on1`, the Potency was “inactive”.
In the case of `O=C(NCCc1ccccc1)C1CCN(Cc2cc3ccccc3n2Cc2ccccc2)CC1`, the Potency was “inactive”.
`COc1ccc(-c2cn3cccnc3n2)cc1NC(=O)Nc1cc(C)ccc1C` was tested, and the Potency was active: 79.4 µM.
For `CCc1oc(C(=O)O)cc1COC`, the Potency was active: 28.2 µM.
With `Cc1noc(C)c1COC(=O)c1ccc(S(=O)(=O)NCc2ccco2)cc1` the Potency was inconclusive: 31.6 µM [inhibitor, single point].
For `O=C(/C=C/Sc1ccccc1)c1ccc(Cl)cc1`, the Potency was “inactive”.
With `O=C(c1cccs1)N1CCN(c2ncc(Br)cn2)CC1` the Potency was “inactive”.
For `Cn1c(SCC(=O)c2cc(Cl)c(Cl)s2)nnc1-c1ccco1`, the Potency was inconclusive: 44.7 µM [inhibitor, partial curve].
With `COc1ccc(Nc2cc(C)c3c(O)cccc3n2)cc1` the Potency was inconclusive: 79.4 µM [inhibitor, partial curve, poor fit].
`COc1ccc([N+](=O)[O-])cc1/C=N/Nc1nc(N2CCCCC2)nc(N2CCCCC2)n1` was tested, and the Potency was inconclusive: 79.4 µM [inhibitor, partial curve, poor fit].
For `O=C1/C(=C/c2cccnc2)SC(=S)N1Cc1ccco1`, the Potency was inconclusive: 35.5 µM [inhibitor, single point].
For `CCN(CC)CCOc1ccc2c(c1)C(=NO)c1cc(OCCN(CC)CC)ccc1-2`, the Potency was inconclusive: 50.1 µM [inhibitor, partial curve].
With `O=c1cc(CNc2cc(C(F)(F)F)cc(C(F)(F)F)c2)nc2sccn12` the Potency was inconclusive: 56.2 µM [inhibitor, partial curve].
With `O=C(O)c1cccc(C(=O)Nc2cccc(NC(=O)C3CCCO3)c2)c1` (configuration not stated) the Potency was inconclusive: 31.6 µM [inhibitor, partial curve, poor fit].
For `COc1cc(C)c2sc3ccccc3c(=O)c2c1NCCN(C)C`, the Potency was inconclusive: 79.4 µM [inhibitor, partial curve, poor fit].
`O=C(Nc1nnc(S(=O)(=O)N2CCCc3ccccc32)s1)c1cccc(Cl)c1` was tested, and the Potency was inconclusive: 56.2 µM [inhibitor, partial curve, poor fit].
With `O=C1CC(=O)CC(c2ccco2)C1` the Potency was active: 17.8 µM.
For `CC[C@H](C)[C@H]1CNC(=S)N1CC1CCN(CC)CC1`, the Potency was inconclusive: 3.16 µM [inhibitor, partial curve, poor fit].
With `O=C1Nc2ccc(C(=O)O)c(O)c2C1=O` the Potency was inconclusive: 22.4 µM [inhibitor, partial curve, poor fit].
For `Clc1cccc(-c2ccc(CNCCSc3nnnn3-c3ccccc3)o2)c1`, the Potency was inconclusive: 63.1 µM [inhibitor, partial curve, poor fit].
With `COc1ccccc1-n1c(SCC(=O)c2ccc(O)cc2O)nc2cc([N+](=O)[O-])ccc21` the Potency was inconclusive: 25.1 µM [inhibitor, partial curve, poor fit].
In the case of `NC(=O)C1CCN(C(=O)c2ccc(NC(=O)c3nsc4ccccc34)cc2)CC1`, the Potency was “inactive”.
With `CC1=NN(c2ccccc2)C(=O)C1C(=S)SC1CC(=O)NC1=O` (configuration not stated) the Potency was “inactive”.
`Cc1cc(-c2nc3c4c5c(sc4[nH]c(=O)n3n2)CCC5)c(C)o1` was tested, and the Potency was active: 12.6 µM.
`CCC1(c2ccccc2)NC(=O)N(CC(=O)Nc2cc(C(F)(F)F)ccc2N2CCCC2)C1=O` (configuration not stated) was tested, and the Potency was inconclusive: 56.2 µM [inhibitor, partial curve, poor fit].
`COc1ccc(NC(=O)COc2coc(CN3CCc4ccccc4C3)cc2=O)cc1` was tested, and the Potency was inconclusive: 39.8 µM [inhibitor, partial curve, poor fit].
For `CCOC(=O)C1CCN(C(=O)CCc2nnc3ccc(NCc4ccco4)nn23)CC1`, the Potency was active: 44.7 µM.
With `COc1ccc(CC(=O)N/N=C/c2cccn2-c2ccc([N+](=O)[O-])cc2)cc1OC` the Potency was inconclusive: 17.8 µM [inhibitor, single point].
For `O=C(O)/C(=C\c1ccccc1Cl)c1ccc(S(=O)(=O)N2CCCCC2)s1`, the Potency was active: 50.1 µM.
In the case of `Cc1ccccc1OCCOC(=O)c1ccc(S(=O)(=O)N2CCCC2)cc1`, the Potency was “inactive”.
For `Cc1ccc(-c2nc(NC(=O)CSc3cc(C)c4ccccc4n3)ns2)cc1`, the Potency was inconclusive: 10 µM [inhibitor, full curve].
In the case of `Cc1[nH]nc2c1C(c1ccc(-c3ccc(Cl)cc3)o1)C(C#N)=C(N)O2` (configuration not stated), the Potency was inconclusive: 39.8 µM [inhibitor, partial curve, poor fit].
`O=C(Nc1cccc([N+](=O)[O-])c1)c1cnccn1` was tested, and the Potency was active: 11.2 µM.
With `O=C(Nc1c(Cl)cc(Cl)cc1C(=O)NCc1cccnc1)c1ccc(Cl)cc1Cl` the Potency was inconclusive: 35.5 µM [inhibitor, partial curve, poor fit].
`N=C(N)SCc1ccc(Cl)c2ccccc12` was tested, and the Potency was inconclusive: 6.31 µM [inhibitor, partial curve, poor fit].
With `C/C(=N\NC(=O)c1[nH]c2c([N+](=O)[O-])cc(C)cc2c1-c1ccccc1)c1cccnc1` the Potency was inconclusive: 8.91 µM [inhibitor, partial curve, poor fit].
With `Cc1cc(C)nc(N/N=C/c2ccccc2OCC(=O)O)n1` the Potency was active: 28.2 µM.
With `COc1cc(/C=N/N=C(N)N)ccc1OCc1ccccc1Cl` the Potency was inconclusive: 89.1 µM [inhibitor, partial curve, poor fit].
With `COc1cccc(-n2c(C)cc(/C=C3/C(=N)N4C(=NC3=O)SN=C4S(C)(=O)=O)c2C)c1` the Potency was active: 17.8 µM.
`O=C1c2cc([N+](=O)[O-])cc3cc([N+](=O)[O-])cc(c23)C(=O)N1c1ccccn1` was tested, and the Potency was active: 15.8 µM.
`Cn1cnc([N+](=O)[O-])c1Oc1cccc2ccccc12` was tested, and the Potency was inconclusive: 31.6 µM [inhibitor, partial curve, poor fit].
`CCOc1ccc(N(CC(=O)NCc2ccco2)S(C)(=O)=O)cc1` was tested, and the Potency was inconclusive: 31.6 µM [inhibitor, partial curve, poor fit].
With `CC1=NN(c2ccccc2)C(=O)/C1=C/c1ccc(-c2ccc(C)c(C(=O)O)c2)o1` the Potency was active: 25.1 µM.
`C(=C\n1nnc2ccccc21)/c1ccc[nH]1` was tested, and the Potency was active: 50.1 µM.
With `COC(=O)c1cc2oc3ccccc3c2n1Cc1nc(-c2ccc(Cl)cc2)oc1C` the Potency was “inactive”.
For `COc1ccc(C(=O)Nc2ccc(C(=O)Nc3nccs3)cc2)cc1[N+](=O)[O-]`, the Potency was inconclusive: 10 µM [inhibitor, partial curve].
`CCn1c(SCC(=O)c2ccc(O)c(O)c2)nnc1-c1ccccc1` was tested, and the Potency was inconclusive: 15.8 µM [inhibitor, full curve, poor fit].
With `COc1ccc(-c2nnc(SCC(=O)NCCc3ccc(OC)c(OC)c3)nc2-c2ccc(OC)cc2)cc1` the Potency was inconclusive: 8.91 µM [inhibitor, partial curve, poor fit].
For `COc1cc(NC(=O)CSCc2ccccc2)c(C(=O)O)cc1OC`, the Potency was inconclusive: 35.5 µM [inhibitor, partial curve, poor fit].
With `Cc1c(Br)cc(C(=O)NCc2ccco2)c(C)c1C` the Potency was inconclusive: 14.1 µM [inhibitor, full curve, poor fit].

Reference: PubChem BioAssay AID588591 (National Center for Advancing Translational Sciences (NCATS), 2011)
Potency means the concentration at half of the fitted maximal effect; tags describe the fitted curve by direction and shape.
